Measured values reported in article PMC4336329 (PLoS ONE, 2015).
About 2,200 (0.71%) of roughly 310,000 compounds showed an effect of 50% or more. Effects have a minus sign here. This is one part of the list.

biological target: human ether-à-go-go-related gene (hERG) potassium channel (human, UniProt Q12809); assay: primary screen, population patch clamp on CHO cells stably expressing hERG
Sequence (Q12809 whole entry, looked up): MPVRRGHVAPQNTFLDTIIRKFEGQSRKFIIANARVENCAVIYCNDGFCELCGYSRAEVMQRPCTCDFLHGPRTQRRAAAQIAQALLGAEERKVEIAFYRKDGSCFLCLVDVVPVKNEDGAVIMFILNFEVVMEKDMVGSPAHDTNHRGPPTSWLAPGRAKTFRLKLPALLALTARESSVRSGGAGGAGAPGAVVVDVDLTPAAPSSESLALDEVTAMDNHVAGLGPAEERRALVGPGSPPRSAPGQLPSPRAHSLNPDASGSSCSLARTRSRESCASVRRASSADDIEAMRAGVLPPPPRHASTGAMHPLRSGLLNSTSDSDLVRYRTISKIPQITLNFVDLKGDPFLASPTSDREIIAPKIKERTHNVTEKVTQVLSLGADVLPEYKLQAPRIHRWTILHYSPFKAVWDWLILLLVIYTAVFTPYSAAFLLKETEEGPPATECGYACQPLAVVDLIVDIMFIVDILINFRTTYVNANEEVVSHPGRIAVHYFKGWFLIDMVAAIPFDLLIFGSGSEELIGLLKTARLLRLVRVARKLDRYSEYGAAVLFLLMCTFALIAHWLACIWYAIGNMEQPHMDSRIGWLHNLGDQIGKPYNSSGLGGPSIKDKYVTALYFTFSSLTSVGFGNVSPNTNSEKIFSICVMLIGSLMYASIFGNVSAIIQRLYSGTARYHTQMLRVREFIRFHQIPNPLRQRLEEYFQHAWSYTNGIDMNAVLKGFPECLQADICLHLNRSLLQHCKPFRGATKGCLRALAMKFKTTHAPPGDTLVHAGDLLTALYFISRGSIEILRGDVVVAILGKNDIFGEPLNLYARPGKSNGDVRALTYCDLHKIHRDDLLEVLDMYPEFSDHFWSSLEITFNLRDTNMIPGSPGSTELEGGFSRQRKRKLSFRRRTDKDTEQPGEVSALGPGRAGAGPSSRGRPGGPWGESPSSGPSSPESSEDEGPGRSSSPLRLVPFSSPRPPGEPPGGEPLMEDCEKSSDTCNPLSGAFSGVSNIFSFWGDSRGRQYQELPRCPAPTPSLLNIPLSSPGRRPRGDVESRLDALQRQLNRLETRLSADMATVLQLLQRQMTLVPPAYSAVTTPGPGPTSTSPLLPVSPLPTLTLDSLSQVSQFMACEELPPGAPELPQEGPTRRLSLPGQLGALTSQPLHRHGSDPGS

SMILES	hERG current change (%, negative = inhibition) at 1uM [%]
COc1ccc(CCNC(=O)c2ccc(CSc3ccccc3)o2)cc1	1.49
O=C(/C=C/c1c(F)cccc1Cl)Nc1ccc(S(=O)(=O)Nc2ncccn2)cc1	14.1
O=C(NCc1cccc(Cl)c1)c1ccncc1	6.03
Cc1ccc2[nH]c3c(c2c1)CN(C(=O)CN1CCN(C(=O)c2ccco2)CC1)CC3	6.28
COc1cc(/C=C/C(C)=O)cc(OC)c1OC	5.86
O=C1c2ccccc2NC(c2ccccc2)N1NS(=O)(=O)c1ccccc1 (stereo not drawn)	11.7
c1ccn2c(SCc3ccc4c(c3)OCO4)nnc2c1	12.4
CCn1c(C)[n+](CC)c2ccc(S(=O)(=O)N(C)C)cc21.[I-]	11.6
O=C(O)c1cccc(-n2cccc2/C=C\[N+](=O)[O-])c1	14.1
Cc1cccc(C)c1-n1cccc1/C=C1/C(=N)N2C(=NC1=O)SN=C2S(C)(=O)=O	5.28
COc1ccc2nc(/C=N/NC(=O)[C@H](C)NC(=O)OC(C)(C)C)ccc2c1	12.6
O=C(NCCCCc1ccccc1)Nc1cccc(F)c1	4.51
COc1ccc(C(=O)/C=C2/c3ccccc3CC(C)(C)N2C)cc1OC.Cl	13.5
CCN(Cc1ccccc1)S(=O)(=O)c1ccc(S(=O)(=O)N(Cc2ccccn2)Cc2ccco2)cc1	14.6
COc1ccc(NC(=O)C2CC(=O)N/C(=N/N=C/c3ccccc3)S2)cc1 (stereo not drawn)	7.17
O=C(Nc1ccc(OC(F)F)cc1)c1ncc(Cl)c(Cl)c1Cl	7.69
CS(=O)(=O)N1CCCC(C(=O)NCc2ccccc2Cl)C1 (stereo not drawn)	8.35
COc1cccc2c(=O)c(SC(F)(F)C(F)C(F)(F)F)c(C)[nH]c12 (stereo not drawn)	5.16
COc1ccccc1NC(=O)C(C)OC(=O)/C=C/c1ccc2ccccc2n1 (stereo not drawn)	9.88
Cc1ccc2oc(-c3ccccc3)nc2c1	13
O=C1NC(=O)N(c2ccc(Br)cc2)C(=O)/C1=C/c1ccsc1	12.8
Brc1ccc(/C=N/Nc2ncnc3c2cnn3Cc2ccccc2)cc1	15.3
COc1ccc(C(CC(=O)N2CCC3(CC2)OCCO3)NS(=O)(=O)c2ccc(F)cc2)cc1 (stereo not drawn)	10
Cc1ccc(N2C(=O)N(CC(=O)Nc3ccc(F)c(F)c3)C(=O)C2C)cc1 (stereo not drawn)	5.09
